Values joined by “and” are separate entries in the source; they are usually repeats but may differ in a detail not shown here. Equal entries are not always repeated. Where two headings read alike, the source gives them in different places. This continues a long series; more values of the same kind are listed elsewhere.
Biological target: T1, mut-GVHH TtIleRS2 (Thermus thermophilus, UniProt P56690, G56H/H54G)
T1 construct: hexa-histidine tag (pET28b(+)) (N); made in house; host or cells: E. coli Rosetta2 (DE3)
T1 sequence (P56690 1-1043 H54G/G56H): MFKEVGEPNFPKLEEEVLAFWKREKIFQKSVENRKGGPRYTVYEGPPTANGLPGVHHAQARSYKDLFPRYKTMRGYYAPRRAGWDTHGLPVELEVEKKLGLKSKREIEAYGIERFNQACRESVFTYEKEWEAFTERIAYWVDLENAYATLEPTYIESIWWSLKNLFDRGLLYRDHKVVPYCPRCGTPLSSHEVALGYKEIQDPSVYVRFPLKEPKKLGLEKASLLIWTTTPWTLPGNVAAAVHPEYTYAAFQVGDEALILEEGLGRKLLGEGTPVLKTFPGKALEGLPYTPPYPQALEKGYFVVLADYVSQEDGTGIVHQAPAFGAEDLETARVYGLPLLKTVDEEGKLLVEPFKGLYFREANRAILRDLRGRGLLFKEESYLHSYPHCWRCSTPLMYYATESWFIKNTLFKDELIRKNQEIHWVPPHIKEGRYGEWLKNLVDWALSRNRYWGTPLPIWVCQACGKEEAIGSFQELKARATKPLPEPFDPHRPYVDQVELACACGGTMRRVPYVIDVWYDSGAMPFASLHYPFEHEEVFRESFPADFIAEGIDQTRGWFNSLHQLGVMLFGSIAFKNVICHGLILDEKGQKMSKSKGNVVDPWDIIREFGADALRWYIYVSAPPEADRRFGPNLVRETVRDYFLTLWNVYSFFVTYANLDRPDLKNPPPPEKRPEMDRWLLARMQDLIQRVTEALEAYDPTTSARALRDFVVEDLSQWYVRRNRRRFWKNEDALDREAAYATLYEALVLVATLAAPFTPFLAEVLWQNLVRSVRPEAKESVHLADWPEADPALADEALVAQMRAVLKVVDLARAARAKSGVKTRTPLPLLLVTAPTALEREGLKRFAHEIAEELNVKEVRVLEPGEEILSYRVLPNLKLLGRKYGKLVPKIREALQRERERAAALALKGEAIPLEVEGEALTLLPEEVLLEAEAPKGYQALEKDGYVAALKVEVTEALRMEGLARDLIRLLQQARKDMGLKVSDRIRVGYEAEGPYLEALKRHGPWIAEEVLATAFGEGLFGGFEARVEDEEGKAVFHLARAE
Assay type: biochemical
Experimental: L-Ile and ATP concentrations ranged from 1/10 KM to 10 KM values. When measuring the KI towards one of the substrates, the other was held in saturation (concentrations at least 10 KM). The aliquots of the reaction mixture (1–2.5 μl) were quenched in 2 volumes of 500 mM NaOAc pH = 4.5, 0.1% SDS, and formed ^32P-ATP was separated from the remaining ^32P-PPi by thin-layer chromatography on Polygram CEL 300 PEI UV254 TLC plates (Macherey-Nagel, cat: 801063) using 750 mM KH2PO4 pH=3.5, 4 M urea buffer. Visualization and quantification of the signals was performed using a Typhoon Phosphoimager 5 (General Electric) and accompanying ImageQuant™ TL software (SV: 10.2). The kinetic constants were determined using a global fit option of the competitive inhibition model of GraphPad Prism 6 software (SV: 6.01). All experiments were performed in triplicates. The kcat was determined by dividing the maximal velocity, VM, with the used enzyme concentration. […]
variable substrate (ATP or Ile) was varied in the range of 0.1 KM to 10 KM. The other substrate (Ile or ATP) was kept in excess at 5 to 10 KM. Data were globally fitted to the competitive inhibition model using GraphPad prism 6.01 for Windows software. The values represent the average value ± SD of three independent experiments. Source data are provided as a Source Data file.
(1 picture or pasted object on this page, not shown here)

For `C/C(=C\C(=O)OCCCCCCCCC(=O)O)C[C@@H]1OC[C@H](C[C@@H]2O[C@H]2[C@@H](C)[C@H](C)O)[C@@H](O)[C@H]1O` [mupirocin], the initial velocity vo (c(mupirocin) 10.0 μM, c(ATP) 1.0 mM) was 0.01517 mM/min and 0.01349 mM/min and 0.01136 mM/min, the initial velocity vo (c(mupirocin) 10.0 μM, c(ATP) 2.5 mM) was 0.023 mM/min and 0.02233 mM/min and 0.02165 mM/min and the initial velocity vo (c(mupirocin) 10.0 μM, c(ATP) 5.0 mM) was 0.03471 mM/min and 0.03167 mM/min and 0.02951 mM/min. The initial velocity vo (c(mupirocin) 10.0 μM, c(ATP) 10.0 mM) was 0.04436 mM/min and 0.04376 mM/min and 0.04818 mM/min, the initial velocity vo (c(mupirocin) 10.0 μM, c(ATP) 15.0 mM) was 0.05284 mM/min and 0.04883 mM/min and 0.04447 mM/min and the initial velocity vo (c(mupirocin) 10.0 μM, c(Ile) 5.0 μM) was 0.00401 mM/min and 0.00428 mM/min and 0.00418 mM/min. For the same molecule, the initial velocity vo (c(mupirocin) 10.0 μM, c(Ile) 15.0 μM) was 0.01215 mM/min and 0.01108 mM/min and 0.01184 mM/min, the initial velocity vo (c(mupirocin) 10.0 μM, c(Ile) 50.0 μM) was 0.02589 mM/min and 0.02563 mM/min and 0.02724 mM/min and the initial velocity vo (c(mupirocin) 10.0 μM, c(Ile) 125.0 μM) was 0.03919 mM/min and 0.03829 mM/min and 0.04011 mM/min. For the same molecule, the initial velocity vo (c(mupirocin) 10.0 μM, c(Ile) 250.0 μM) was 0.04599 mM/min and 0.04529 mM/min and 0.04478 mM/min, the initial velocity vo (c(mupirocin) 10.0 μM, c(Ile) 500.0 μM) was 0.04934 mM/min and 0.05031 mM/min and 0.05032 mM/min and the initial velocity vo (c(mupirocin) 25.0 μM, c(ATP) 0.5 mM) was 0.00319 mM/min and 0.00503 mM/min and 0.00588 mM/min. The initial velocity vo (c(mupirocin) 25.0 μM, c(ATP) 1.0 mM) was 0.01067 mM/min and 0.00943 mM/min and 0.00942 mM/min, the initial velocity vo (c(mupirocin) 25.0 μM, c(ATP) 2.5 mM) was 0.01907 mM/min and 0.01967 mM/min and 0.02025 mM/min and the initial velocity vo (c(mupirocin) 25.0 μM, c(ATP) 5.0 mM) was 0.02681 mM/min and 0.03109 mM/min and 0.0286 mM/min. The initial velocity vo (c(mupirocin) 25.0 μM, c(ATP) 10.0 mM) was 0.03917 mM/min and 0.04107 mM/min and 0.04101 mM/min, the initial velocity vo (c(mupirocin) 25.0 μM, c(ATP) 15.0 mM) was 0.04504 mM/min and 0.04533 mM/min and 0.04909 mM/min and the initial velocity vo (c(mupirocin) 25.0 μM, c(Ile) 5.0 μM) was 0.00364 mM/min and 0.00334 mM/min and 0.0034 mM/min. For the same molecule, the initial velocity vo (c(mupirocin) 25.0 μM, c(Ile) 15.0 μM) was 0.00892 mM/min and 0.00987 mM/min and 0.0094 mM/min, the initial velocity vo (c(mupirocin) 25.0 μM, c(Ile) 50.0 μM) was 0.02231 mM/min and 0.0224 mM/min and 0.02371 mM/min and the initial velocity vo (c(mupirocin) 25.0 μM, c(Ile) 125.0 μM) was 0.03603 mM/min and 0.03876 mM/min and 0.03694 mM/min. The initial velocity vo (c(mupirocin) 25.0 μM, c(Ile) 250.0 μM) was 0.04218 mM/min and 0.04262 mM/min and 0.0435 mM/min, the initial velocity vo (c(mupirocin) 25.0 μM, c(Ile) 500.0 μM) was 0.04923 mM/min and 0.0502 mM/min and 0.04854 mM/min and the initial velocity vo (c(mupirocin) 50.0 μM, c(ATP) 0.5 mM) was 0.00358 mM/min and 0.00332 mM/min and 0.00333 mM/min. The initial velocity vo (c(mupirocin) 50.0 μM, c(ATP) 1.0 mM) was 0.00717 mM/min and 0.00703 mM/min and 0.00712 mM/min, the initial velocity vo (c(mupirocin) 50.0 μM, c(ATP) 2.5 mM) was 0.01524 mM/min and 0.01474 mM/min and 0.01299 mM/min and the initial velocity vo (c(mupirocin) 50.0 μM, c(ATP) 5.0 mM) was 0.02517 mM/min and 0.02204 mM/min. For the same molecule, the initial velocity vo (c(mupirocin) 50.0 μM, c(ATP) 10.0 mM) was 0.02784 mM/min and 0.03461 mM/min, the initial velocity vo (c(mupirocin) 50.0 μM, c(ATP) 15.0 mM) was 0.04055 mM/min and 0.04044 mM/min and 0.04151 mM/min and the initial velocity vo (c(mupirocin) 50.0 μM, c(Ile) 5.0 μM) was 0.00199 mM/min and 0.00202 mM/min and 0.00228 mM/min. The initial velocity vo (c(mupirocin) 50.0 μM, c(Ile) 15.0 μM) was 0.00738 mM/min and 0.00705 mM/min and 0.00715 mM/min, the initial velocity vo (c(mupirocin) 50.0 μM, c(Ile) 50.0 μM) was 0.01837 mM/min and 0.01898 mM/min and 0.01914 mM/min and the initial velocity vo (c(mupirocin) 50.0 μM, c(Ile) 125.0 μM) was 0.03037 mM/min and 0.03073 mM/min and 0.03042 mM/min. The initial velocity vo (c(mupirocin) 50.0 μM, c(Ile) 250.0 μM) was 0.03915 mM/min and 0.03813 mM/min and 0.03919 mM/min, the initial velocity vo (c(mupirocin) 50.0 μM, c(Ile) 500.0 μM) was 0.04564 mM/min and 0.04612 mM/min and 0.04628 mM/min and the initial velocity vo (c(mupirocin) 100.0 μM, c(ATP) 0.5 mM) was 0.00225 mM/min and 0.00205 mM/min and 0.00262 mM/min. The initial velocity vo (c(mupirocin) 100.0 μM, c(ATP) 1.0 mM) was 0.00382 mM/min and 0.00482 mM/min and 0.00529 mM/min, the initial velocity vo (c(mupirocin) 100.0 μM, c(ATP) 2.5 mM) was 0.00926 mM/min and 0.01048 mM/min and 0.01057 mM/min and the initial velocity vo (c(mupirocin) 100.0 μM, c(ATP) 5.0 mM) was 0.01673 mM/min and 0.01798 mM/min and 0.01705 mM/min. For the same molecule, the initial velocity vo (c(mupirocin) 100.0 μM, c(ATP) 10.0 mM) was 0.02922 mM/min and 0.02793 mM/min and 0.02936 mM/min, the initial velocity vo (c(mupirocin) 100.0 μM, c(ATP) 15.0 mM) was 0.03669 mM/min and 0.03638 mM/min and 0.0343 mM/min and the initial velocity vo (c(mupirocin) 100.0 μM, c(Ile) 5.0 μM) was 0.00168 mM/min and 0.00177 mM/min and 0.00091 mM/min. The initial velocity vo (c(mupirocin) 100.0 μM, c(Ile) 15.0 μM) was 0.00508 mM/min and 0.00303 mM/min, the initial velocity vo (c(mupirocin) 100.0 μM, c(Ile) 50.0 μM) was 0.01267 mM/min and 0.01331 mM/min and 0.00968 mM/min and the initial velocity vo (c(mupirocin) 100.0 μM, c(Ile) 125.0 μM) was 0.02408 mM/min and 0.02414 mM/min and 0.02288 mM/min. The initial velocity vo (c(mupirocin) 100.0 μM, c(Ile) 250.0 μM) was 0.03327 mM/min and 0.03202 mM/min and 0.03416 mM/min, the initial velocity vo (c(mupirocin) 100.0 μM, c(Ile) 500.0 μM) was 0.04115 mM/min and 0.04051 mM/min and 0.04157 mM/min and the initial velocity vo (c(mupirocin) 200.0 μM, c(ATP) 0.5 mM) was 0.00187 mM/min and 0.00097 mM/min and 0.00147 mM/min. The initial velocity vo (c(mupirocin) 200.0 μM, c(ATP) 1.0 mM) was 0.00234 mM/min and 0.00255 mM/min and 0.00233 mM/min, the initial velocity vo (c(mupirocin) 200.0 μM, c(ATP) 2.5 mM) was 0.00592 mM/min and 0.00584 mM/min and 0.00549 mM/min and the initial velocity vo (c(mupirocin) 200.0 μM, c(ATP) 5.0 mM) was 0.01078 mM/min and 0.01084 mM/min and 0.01053 mM/min. For the same molecule, the initial velocity vo (c(mupirocin) 200.0 μM, c(ATP) 10.0 mM) was 0.02019 mM/min and 0.01992 mM/min, the initial velocity vo (c(mupirocin) 200.0 μM, c(ATP) 15.0 mM) was 0.0254 mM/min and 0.02596 mM/min and 0.02532 mM/min and the initial velocity vo (c(mupirocin) 200.0 μM, c(Ile) 15.0 μM) was 0.002918 mM/min and 0.00307 mM/min and 0.004774 mM/min. For the same molecule, the initial velocity vo (c(mupirocin) 200.0 μM, c(Ile) 50.0 μM) was 0.009512 mM/min and 0.01039 mM/min, the initial velocity vo (c(mupirocin) 200.0 μM, c(Ile) 125.0 μM) was 0.01831 mM/min and 0.01883 mM/min and 0.01954 mM/min and the initial velocity vo (c(mupirocin) 200.0 μM, c(Ile) 250.0 μM) was 0.02591 mM/min and 0.02913 mM/min and 0.02967 mM/min. The initial velocity vo (c(mupirocin) 200.0 μM, c(Ile) 500.0 μM) was 0.03617 mM/min and 0.03736 mM/min and 0.03824 mM/min.

— article PMC10485003, “Antibiotic hyper-resistance in a class I aminoacyl-tRNA synthetase with altered active site signature motif” (Nature Communications, 2023)
